From paper PMC4336329 (PLoS ONE, 2015)
Hit rate of the full screen: of about 310,000 compounds, about 2,200 (0.71%) showed an effect of 50% or more. The effect is printed as a negative number. The list shows a part of the results.

The molecules below were run against human ether-à-go-go-related gene (hERG) potassium channel (human, UniProt Q12809) (assay: primary screen, population patch clamp on CHO cells stably expressing hERG).
Sequence of human ether-à-go-go-related gene (hERG) potassium channel (Q12809 whole entry, looked up): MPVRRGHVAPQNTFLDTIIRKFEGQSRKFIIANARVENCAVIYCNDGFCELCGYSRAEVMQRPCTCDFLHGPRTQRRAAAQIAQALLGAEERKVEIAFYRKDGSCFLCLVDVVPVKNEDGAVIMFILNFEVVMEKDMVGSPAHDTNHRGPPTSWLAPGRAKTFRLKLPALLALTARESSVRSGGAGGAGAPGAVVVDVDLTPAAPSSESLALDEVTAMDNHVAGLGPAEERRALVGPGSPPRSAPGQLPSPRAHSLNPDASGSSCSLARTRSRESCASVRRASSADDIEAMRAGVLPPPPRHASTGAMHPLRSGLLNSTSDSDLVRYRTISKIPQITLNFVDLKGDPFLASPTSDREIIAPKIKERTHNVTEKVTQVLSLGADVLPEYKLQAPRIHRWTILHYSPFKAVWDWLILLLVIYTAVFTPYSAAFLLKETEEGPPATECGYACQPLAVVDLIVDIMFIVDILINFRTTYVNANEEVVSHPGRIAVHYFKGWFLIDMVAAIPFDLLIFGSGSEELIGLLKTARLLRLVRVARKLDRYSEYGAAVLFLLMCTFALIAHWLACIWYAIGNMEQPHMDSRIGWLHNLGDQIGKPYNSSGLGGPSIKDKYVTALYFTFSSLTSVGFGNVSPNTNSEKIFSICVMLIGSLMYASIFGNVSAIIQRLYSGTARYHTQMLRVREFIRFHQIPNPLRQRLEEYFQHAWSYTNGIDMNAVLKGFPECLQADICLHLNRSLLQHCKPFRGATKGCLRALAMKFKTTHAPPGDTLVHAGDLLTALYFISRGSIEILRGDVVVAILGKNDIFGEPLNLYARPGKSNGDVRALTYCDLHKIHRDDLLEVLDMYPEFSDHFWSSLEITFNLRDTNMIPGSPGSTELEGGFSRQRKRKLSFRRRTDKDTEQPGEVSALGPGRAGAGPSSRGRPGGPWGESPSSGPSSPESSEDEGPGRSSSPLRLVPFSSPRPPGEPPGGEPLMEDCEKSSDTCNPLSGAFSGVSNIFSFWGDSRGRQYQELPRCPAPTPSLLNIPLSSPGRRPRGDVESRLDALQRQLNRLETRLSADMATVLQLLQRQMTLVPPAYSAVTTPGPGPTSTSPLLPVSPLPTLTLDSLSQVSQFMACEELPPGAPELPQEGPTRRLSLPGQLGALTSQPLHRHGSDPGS

| SMILES | hERG current change (%, negative = inhibition) at 1uM [%] |
| --- | --- |
| COc1ccc(NC(=O)CC2SC(=NCC3CCCO3)NC2=O)cc1 (stereo not shown) | 11.9 |
| CC(C)CC(=O)Nc1nnc(SCC(=O)NCc2ccc3c(c2)OCO3)s1 | 10.4 |
| COc1ccccc1NC(=O)N1CCN(c2ccc3nncn3n2)CC1 | -9.4 |
| CCOC(=O)c1c(S(=O)(=O)NCCc2ccc(OC)c(OC)c2)c(C)n(C)c1C | 6.07 |
| COc1ccc(/C=C2\N=C(c3ccccc3)NNC2=O)cc1 | 8.64 |
| CCOC(CCNC(=O)c1cn(CC(C)C)c(=O)c2c1c1ccccc1n2C)OCC | 3.25 |
| CC1=CC(C)(C)N2C(=O)C3(C(C#N)=C(N)Oc4cc(O)ccc43)c3cccc1c32 (stereo not shown) | 15.9 |
| CC(C)(C)OC1NS(=O)(=O)OCC1NCOC(Cl)(Cl)Cl (stereo not shown) | 15.2 |
| Cc1cc([N+](=O)[O-])ccc1NC(=O)c1cccc(NC(=O)C(C)C)c1 | 16 |
| Cc1[nH]n(-c2ccc(Br)cc2)c(=O)c1C=Nc1ccc(S(=O)(=O)Nc2nccs2)cc1 | 14.4 |
| CN1CCN(S(=O)(=O)c2ccc(NC(=O)c3ccco3)cc2)CC1 | -6.93 |
| O=C(NCCc1nc(-c2ccccc2)no1)c1ccccc1 | 1.15 |
| Cc1ccc(CNc2ncc(-c3ccccc3)n2C)o1.O=C(O)C(=O)O | 1.34 |
| COc1ccccc1NC(=O)CCC(=O)OCc1cccc([N+](=O)[O-])c1 | 16 |
| CC(C)(C)C(=O)Cn1c(=O)n(CC2CCCO2)c(=O)c2ccccc21 (stereo not shown) | -0.876 |
| O=C(CC1SC2=NCCN2C1=O)Nc1ccc(Cl)cc1 (stereo not shown) | 9.83 |
| Cc1cc(Cl)ccc1OCC(=O)N(Cc1cccs1)C1CCS(=O)(=O)C1 (stereo not shown) | 10.4 |
| CC(C)CN(C(=O)COC(=O)CNC(=O)c1sc2ccccc2c1Cl)C1CCS(=O)(=O)C1 (stereo not shown) | 6.41 |
| CC(=O)Nc1ccc(/C(C)=N/NC(=O)c2ccc(CN3CCOCC3)cc2)cc1 | 10.9 |
| CCOC(=O)C1CCCN(c2c(N3CCN(c4ccccn4)CC3)c(=O)c2=O)C1 (stereo not shown) | -8.35 |
| O=S(=O)(Cc1ccc(Cl)cc1)Nc1ccc(Cl)cn1 | 6.83 |
| COc1ccc(S(=O)(=O)Oc2cccc(C(=S)N3CCOCC3)c2)cc1 | 5.8 |

| SMILES | hERG current change (%, negative = inhibition) at 1uM [%] |
| --- | --- |
| S=C(NCc1ccccc1)N1CCCCC1 | 14.5 |
| CC1=C(C(=O)Nc2ccc(C(=O)NCCC(C)C)cc2)SCCO1 | 12.4 |
| Cc1nn(CC(=O)N2CCCc3ccccc32)c(C)c1[N+](=O)[O-] | 7.9 |
| O=C(CNC(=O)c1cccs1)N=Nc1c(O)[nH]c2ccc([N+](=O)[O-])cc12 | 11.9 |
| Cc1nc2c3cc(F)ccc3n(CCN3CCCCC3)c2s1.Cl | -34.2 |
| CN(C)c1ccc(C(=O)N2CCCC2)cc1 | 10 |
| CCn1ncc(Br)c1C(=O)Nc1ccc(OC(F)(F)F)cc1 | 13.4 |
| c1ccc(Nc2c3c(nc4ncnn24)CCC3)cc1 | 12.3 |
| CCn1c(SCC(=O)Nc2cccc(O)c2)nc2c1c(=O)n(C)c(=O)n2C | 14.7 |
| CC(C)[C@H](NS(=O)(=O)c1ccccc1)C(=O)OCC(=O)NC(=O)c1cccn1C | -6.91 |
| COc1ccc2[nH]c(=O)c(COC(=O)c3ccco3)cc2c1 | 19.3 |
| CCc1ccc(NC(=O)CSc2nnc(-c3n[nH]c4ccccc34)n2-c2ccccc2)cc1 | 10.6 |
| CCc1ccc(-n2c(SCC(=O)Nc3ccc(C(=O)O)cc3)nnc2-c2ccncc2)cc1 | -1.14 |
| COc1ccc(N(C(=O)c2ccncc2)S(=O)(=O)c2cccc([N+](=O)[O-])c2)cc1 | 23.9 |
| COc1ccc([N+](=O)[O-])cc1N(CC(=O)NCCSc1ccccc1)S(C)(=O)=O | -2.36 |
| CCOC(=O)c1ccc(N2Cc3ccccc3C2=N)cc1 | -25.7 |
| O=C(Nc1ccccn1)C1CCN(c2ncnc3c2nc2n3CCCCC2)CC1 | 14.9 |
| CCn1c(CSc2ncccn2)nnc1SCC(=O)N1CCc2ccccc21 | -10.6 |
| COc1ccc(C2CC(C(F)(F)F)n3nc(C(=O)N(C)Cc4cn(C)nc4C)c(Cl)c3N2)cc1 (stereo not shown) | -3.33 |
| COc1cc(NC(=O)CSc2nc(C3CC3)nc3ccccc23)cc(OC)c1 | 13.2 |
| COC(=O)c1sc(NC(=S)NC(=O)c2cccc(Br)c2)nc1C | 12.1 |
| O=C(Cn1nc2sc3ccccc3n2c(=O)c1=O)c1cccs1 | 13.1 |

| SMILES | hERG current change (%, negative = inhibition) at 1uM [%] |
| --- | --- |
| COc1ccc(N2C(=O)C3CCCN3C2c2cccc(OC)c2)cc1 (stereo not shown) | 6.59 |
| Cc1ccc(/C=C2/NC(=O)N(c3ccccc3)C2=O)o1 | 8.55 |
| CCC(=O)Nc1c(C#N)c2nc3ccccc3nc2n1-c1ccccc1C | 24.9 |
| CN1CCN(C(=O)C2=C[C@@H](C(C)(C)C)C[C@@H](OCc3ccc(CO)cc3)O2)CC1 | 4.49 |
| COc1ccc(N2CC(NC(=O)N3CCN(C(=O)c4ccco4)CC3)CC2=O)cc1OC (stereo not shown) | 6.55 |
| Clc1ccc(COn2c(-c3ccc(Cl)cc3)nc3ccccc32)cc1 | 10.3 |
| CCC(C)NC(=O)COC(=O)c1ccc(Cl)cc1O (stereo not shown) | 12.6 |
| Cn1ccnc1C(O)c1ccco1 (stereo not shown) | 5.67 |
| CCCCSc1nc(CCC)cc(=O)[nH]1 | -0.222 |
| O=C1CCCC2=C1C1c3ccccc3C(=O)N1c1ccc(C(=O)c3ccccc3)cc1N2 (stereo not shown) | -7.46 |
| CC(=O)N1CCc2cc(S(=O)(=O)NCc3ccc(C)cc3)ccc21 | 12.6 |
| COCCCN1CN=C(NS(=O)(=O)c2ccc(C)cc2)NC1 | 13.7 |
| C#CCSC1=C(C#N)C(c2cccs2)C(C(=O)OCC)=C(C)N1 (stereo not shown) | 14.1 |
| COc1ccc(C2(CNC(=O)c3ccccc3)CCOCC2)cc1 | 15.1 |
| COc1cccc(NC(=O)CSc2ccc(-c3ccco3)nn2)c1 | -4.17 |
| O=C(CCNC(=O)c1ccc([N+](=O)[O-])cc1)Nc1ccc(Cl)c(S(=O)(=O)N2CCOCC2)c1 | 0.84 |
| O=[N+]([O-])c1ccc(Sc2ccc(F)cc2)nc1 | 11.3 |
| CC1CCCCN1C(=O)COC(=O)c1cccc(NS(=O)(=O)c2ccccc2)c1 (stereo not shown) | 7.71 |
| CCOC(=O)CC(NC(=O)CCc1c(C)nc2ncnn2c1C)c1ccc(OC(C)C)cc1 (stereo not shown) | 7.48 |
| Cc1ccc(OCC(=O)N(Cc2ccccc2)C(C)(C)C)c([N+](=O)[O-])n1 | 4.26 |
| CC(=O)NCC1COc2ccccc2O1 (stereo not shown) | -6.95 |
| CC(C)CCNC(=O)NC(=O)COC(=O)c1cc(S(=O)(=O)N2CCOCC2)ccc1N1CCCCC1 | 3.41 |

| SMILES | hERG current change (%, negative = inhibition) at 1uM [%] |
| --- | --- |
| Cn1c(CNC(=O)c2ccc(F)cc2)nc2ccccc21 | 7.04 |
| O=C(CCc1nnc(-c2ccc3c(c2)OCO3)o1)N1CCC(c2ccc(F)cc2)C1 (stereo not shown) | -0.116 |
| N#Cc1ccc(-c2csc(NC(=O)c3ccc(N4C(=O)CCC4=O)cc3)n2)cc1 | 12.6 |
| Cc1ccc(C(=O)N/C(=C/C=C/c2ccccc2)C(=O)NCc2ccco2)cc1 | -10.9 |
| COc1ccccc1CN=Cc1[nH]c2ccc(Br)c(Cl)c2c1O | 17.4 |
| O=C(NCCC1CCCCN1S(=O)(=O)c1ccc(F)cc1)C(=O)NCc1ccncc1 (stereo not shown) | 1.91 |
| O=[N+]([O-])c1ccc(Sc2n[nH]c(-c3ccco3)n2)nc1 | 1.85 |
| COc1ccccc1NC(=O)NNC(=O)c1ccc2ccccc2c1O | -6.61 |
| O=C1C2C3CCC(O3)C2C(=O)N1c1cccc(F)c1 (stereo not shown) | 5.89 |
| CNC(=O)C1=C(C)NC(=S)NC1c1cc2c(cc1OC)CCCC2 (stereo not shown) | 0.39 |
| O=C1CCC(=O)N1CC(=O)N1CCCc2ccccc21 | 8.49 |
| COc1cc(C(=O)NCC(=O)OCC(=O)Nc2ncc(Cl)cc2Cl)cc(OC)c1OC | 0.37 |
| COc1ccc(CNC(=O)CN2C(=O)COc3ccc(S(=O)(=O)N4CCCCC4)cc32)cc1 | 10.5 |
| O=C1C2C3C=CC(C3)C2C(=O)N1CCCO (stereo not shown) | -3.04 |
| O=C(COC(=O)c1cccs1)Nc1cccc(S(=O)(=O)N2CCOCC2)c1 | 10.9 |
| Cn1c(=O)c2c(nc(Br)n2Cc2ccccc2Cl)n(C)c1=O | 11.9 |
| Cc1cc(C)c(N=Cc2c(O)c3ccccc3oc2=O)c(C)c1 | 17.3 |
| CS(=O)(=O)N(CC(=O)N1CCN(Cc2ccccc2)CC1)Cc1ccccc1 | 4.18 |
| COC(=O)c1cccc(C(=O)N2CCCC(C(=O)c3cc(F)ccc3F)C2)c1 (stereo not shown) | -13.8 |
| CC(=O)OC1CCC(OC(C)=O)c2c1n([O-])c(C)c(C)[n+]2=O (stereo not shown) | 1.44 |
| Cc1nccn1-c1ccc(C=O)cc1 | 6.17 |
| CCCc1nc2c(s1)CCc1onc(-c3cccc([N+](=O)[O-])c3)c1-2 | 14.4 |
